Source: article PMC4336329 (PLoS ONE, 2015)
Hit rate of the full screen: of about 310,000 compounds, about 2,200 (0.71%) showed an effect of 50% or more. Effects have a minus sign here. Some of the results follow.

The compounds below were run against human ether-à-go-go-related gene (hERG) potassium channel (human, UniProt Q12809) (assay: primary screen, population patch clamp on CHO cells stably expressing hERG).
Sequence of human ether-à-go-go-related gene (hERG) potassium channel (Q12809 whole entry, looked up): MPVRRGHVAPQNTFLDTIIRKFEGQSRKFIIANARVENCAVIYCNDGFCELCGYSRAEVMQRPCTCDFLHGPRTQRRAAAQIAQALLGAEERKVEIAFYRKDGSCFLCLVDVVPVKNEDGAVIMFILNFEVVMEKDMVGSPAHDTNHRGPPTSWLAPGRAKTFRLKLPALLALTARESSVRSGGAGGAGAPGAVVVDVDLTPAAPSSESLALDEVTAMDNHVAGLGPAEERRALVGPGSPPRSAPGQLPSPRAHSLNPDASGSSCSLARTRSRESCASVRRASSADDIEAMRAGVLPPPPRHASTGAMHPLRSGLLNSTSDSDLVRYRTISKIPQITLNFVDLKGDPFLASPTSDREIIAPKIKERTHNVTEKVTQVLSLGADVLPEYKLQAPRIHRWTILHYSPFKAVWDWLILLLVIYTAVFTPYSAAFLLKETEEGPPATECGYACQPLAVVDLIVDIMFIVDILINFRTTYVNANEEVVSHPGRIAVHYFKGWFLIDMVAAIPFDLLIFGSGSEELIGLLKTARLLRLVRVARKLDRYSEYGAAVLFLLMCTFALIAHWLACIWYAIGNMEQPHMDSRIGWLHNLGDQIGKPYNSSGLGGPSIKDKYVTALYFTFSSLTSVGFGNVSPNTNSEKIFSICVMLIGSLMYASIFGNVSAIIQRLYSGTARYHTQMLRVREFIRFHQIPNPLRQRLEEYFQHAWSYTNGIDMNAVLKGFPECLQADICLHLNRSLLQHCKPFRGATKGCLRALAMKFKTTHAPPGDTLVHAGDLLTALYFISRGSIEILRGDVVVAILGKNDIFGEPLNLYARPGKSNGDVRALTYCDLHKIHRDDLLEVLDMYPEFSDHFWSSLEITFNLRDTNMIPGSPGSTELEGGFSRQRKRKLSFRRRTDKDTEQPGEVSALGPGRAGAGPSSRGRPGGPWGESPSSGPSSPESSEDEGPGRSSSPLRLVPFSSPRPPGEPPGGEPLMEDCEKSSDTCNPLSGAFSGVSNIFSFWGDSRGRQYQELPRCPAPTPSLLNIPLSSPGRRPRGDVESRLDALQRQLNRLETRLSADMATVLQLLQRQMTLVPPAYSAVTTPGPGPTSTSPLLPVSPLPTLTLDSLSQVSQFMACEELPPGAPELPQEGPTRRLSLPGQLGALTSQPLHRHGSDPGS

Compound | hERG current change (%, negative = inhibition) at 1uM [%]
CCC1CCCCN1CCCNC(=O)c1cc2c(=O)[nH]c3ccccc3c2n1C (stereo not shown) | 8.22
COc1cccc(CN(C)C(=O)c2cccc(NC(=O)CC3SC(N4CCCCC4)=NC3=O)c2)c1OC (stereo not shown) | 9.32
N#Cc1cc(C#N)c(SCC(=O)NCC2CCCO2)nc1N (stereo not shown) | 12.1
O=C(NNC(=S)Nc1cccc(C(F)(F)F)c1)c1cccc(Cl)c1 | 14.4
CCN(CC)CCNc1nc2c(c(=O)[nH]c(=O)n2C)n1CC(O)COc1ccc(Cl)cc1Cl (stereo not shown) | -66.1
Cc1cccn2cc(CNC(=O)CC3CCCC3)nc12 | 7.13
O=C(N/N=C/c1cc([N+](=O)[O-])ccc1O)C(O)(c1ccccc1)c1ccccc1 | 13.2
O=C(Nc1ccccc1)C1CCOC1=O (stereo not shown) | 13
CC1=C(C(=O)OCCNC(=O)c2cccnc2)C(c2cccc([N+](=O)[O-])c2)C(C(=O)OCCN(C)C)=C(C)N1.CCO (stereo not shown) | 5.29
OCCCCNc1cccc2ccccc12 | 8.22
CC(C)/C(=N\NS(=O)(=O)c1ccc(Br)cc1)c1cccs1 | 2.82
COC(=O)COc1ccc(S(=O)(=O)N2CCCCCC2)cc1 | 14.5
Cn1nccc1NC(=O)Nc1cccc(Br)c1 | 11.1
CC(C)(C)CC(C)(C)NC(=O)Nc1cccc([N+](=O)[O-])c1 | 9.93
Cn1c(CN2CCCCC2)nc2cc(NC(=O)c3ccc(F)cc3)ccc21 | -16
CCn1c(CN2CCN(CCO)CC2)nc2ccccc21 | 3.53
Cc1cc(/C=C2\SC(=S)NC2=O)c(C)[nH]1 | 12.2
CCOC(=O)CN1C(=O)S/C(=C/C=C/c2ccc(N(C)C)cc2)C1=O | 13.9
O=C(Cc1ccccc1)Nc1nnc(SCC(=O)NC2CCCC2)s1 | 2.16
N#CCCn1nc(-c2ccccc2)cc1-n1c(C(F)(F)F)nc2ccccc21 | 9.33
Cc1c(C(N)=O)sc2ncn(CC(=O)N(C)C3CCCCC3)c(=O)c12 | 9.31
CC(Oc1ccc2ccc(=O)oc2c1)C(=O)NC1CCN(Cc2ccccc2)CC1 (stereo not shown) | -38.3
O=C(CN(CC1CCCO1)C(=O)CCC(=O)Nc1nccs1)NCc1ccc2c(c1)OCO2 (stereo not shown) | 14.6
C=C1C[C@H]2[C@@H]3CCc4cc(OC)ccc4[C@H]3CC[C@]12C | 10.7
O=C(NCC1COc2ccccc2O1)C1C2C=CC3(CN(Cc4cccs4)C(=O)C13)O2 (stereo not shown) | 2.05
